Reference: the supplement of paper PMC11417369
± gives the standard deviation of the averaged measurements. This is one part of the list.

System: PfAP2-LT AP2 domain (GST-tagged)
Assay: gcPBM binding intensity (ln(normalized median fluorescence intensity)); higher = stronger DNA binding
In short: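 Using an Agilent 4 × 180k array, primer-extended double-stranded 36-bp intergenic genomic probes and negative controls were exposed for 1 h to GST-fused P. falciparum DNA-binding domains expressed in E. coli. Binding was carried out in 1× PBS with 1% milk, 0.2 mg/ml BSA, 0.5% salmon testes DNA and 0.03% Triton X-100, and protein was detected with Alexa488 anti-GST antibody and a 488 nm scan. Binding intensity is the highest Masliner-normalised natural-log median intensity across replicate spots of either probe orientation.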

Sequence | gcPBM binding intensity (ln)
AATTTTTTTTTAATCATGCACACTGTTAAAAGAATA [CACACA_site1240] | 8.49 ± 0.38
AAAAAATAGAATATAAAAATAAAGGAATTAAATTAA [XGTACX_negctrl_site420] | 8.46 ± 0.87
TATATATAAATATATGTGCACTTTTTATATTTATAT | 8.82 ± 0.43
ATATGGAATAATACGCGTACACACATATATATATTA [XGTACX_site307] | 9.34 ± 0.3
TTTATATCATTACAAGTGCATATCATCATAAATTCT [GTGCAC_site9878] | 8.63 ± 0.48
TCTTGATTATATAGTACTACACATTATAAAAAAATT [XGTACX_site2465] | 8.53 ± 0.48
TGTTATTATAACATTTTTTTCAAAATAGCTTTAGAA [CACACA_negctrl_site266] | 8.01 ± 0.35
AATTTATAAGAATAAAGTACTAAAGATACAACTTTA [XGTACX_site7153] | 8.34 ± 0.44
ATAATACCCAAGCACACACACACACCGATATATATA [CACACA_site8344] | 10.4 ± 0.2
ATTAAAGGAAGCAAAACATGCAACAGCAATATTGCA [TGCATGCA_site452] | 8.71 ± 0.4
TTCCTTTTTTTTTATTGTACAAAAATATCAAAAAGG [XGTACX_site8505] | 8.22 ± 0.28
ATTTTTTTTTTTTTTTTGGGGGGGTATACTTTTAAA [CACACA_negctrl_site1020] | 10.6 ± 0.2
TAAAAATAGGAATACGCACACGATGATTAATTTATA [CACACA_site1835] | 8.93 ± 0.41
ATAGAATAAATTTTGTCATTTATTCCTTATATATAA [GTGCAC_negctrl_site227] | 8.49 ± 0.41
AATTATATAACAAATTGTACGAATGAAAATATTATT [XGTACX_site4237] | 8.76 ± 0.4
TTTATATATATTTATACACACAAACATAATACTACT [CACACA_site5161] | 8.95 ± 0.47
TATAATGAGGATGATAGTACGTATTAGTATAAAAAA [XGTACX_site6623] | 8.88 ± 0.45
TTTTTAATTTTATATACACACATAAAATATATGAAG [CACACA_site3145] | 8.55 ± 0.4
ATATATTGGAGCACAACACACACAAGTATATATATG [CACACA_site8435] | 9.55 ± 0.33
ACTACATAATACTATTCACACATTTTTTTTTTTTTT [CACACA_site5794] | 8.81 ± 0.49
AAAAAAAAAAAAAAAACATGCACAAATTATAAGTGA [TGCATGCA_site378] | 8.7 ± 0.49
AAAAAAAAAAAAAACACACAGAACAATATATAAATA [CACACA_site982] | 8.98 ± 0.41

Sequence | gcPBM binding intensity (ln)
AAAAAAAAATACAAAATAGCAATAAATACACAAACG [GTGCAC_negctrl_site707] | 9.2 ± 0.42
ATATAAATTATTTACACACAAACATTTATACTTTTA [CACACA_site3448] | 8.84 ± 0.4
TTTTGTTACGGCAAGGAAGTTAAGCATAAATGAATG [GTGCAC_negctrl_site173] | 8.6 ± 0.46
CAGGCGTGAAATATACGTACACACATTATTTATATT [XGTACX_site5337] | 9.1 ± 0.45
ATATAAGTGTATCTAACACACAAATATGTAAAAATG [CACACA_site7006] | 9.26 ± 0.54
ATATATCTACTGTGTTGTACTGTTAATATTTGAATA [XGTACX_site1931] | 8.91 ± 0.38
TATATACACATATATACACACACATATATATATATA [CACACA_site9127] | 9.73 ± 0.12
AAGAAAAAAAATATATATGTATATATTATTTTAACA [TGCATGCA_negctrl_site534] | 8.44 ± 0.44
ATATTTTTTGCTATTACACACAAGGGATTATTATTT [CACACA_site7776] | 9.16 ± 0.47
TAATAATAGTCTAATACATGCATCGATAACGGAACT [TGCATGCA_site98] | 8.82 ± 0.32
ATGTTAATAACTTGTGGTACTGTTATAATTTAGTAA [XGTACX_site2114] | 8.68 ± 0.39
TTTTTATTTTTAAAGGCACACACATTTTTATTTTTA [CACACA_site8624] | 8.95 ± 0.48
AATAAATAAATAATATAATGAAATTATAAAATGTGG [TGCATGCA_negctrl_site385] | 8.76 ± 0.61
TATTTGTGCCAAAAATGAAAAAGTTTGTATAAAACC [CACACA_negctrl_site1406] | 8.55 ± 0.47
AAATGAAATTTGTATACACACAAATATATTTATATA [CACACA_site6525] | 8.79 ± 0.42
TATATATATATATACACACACACCCTAAAAATATAT [CACACA_site1611] | 9.765 ± 0.021
AAAATTACTATATGAACACACATGATTAGATATATG [CACACA_site3083] | 8.95 ± 0.41
TGAAAGAATTAATTTTGTACATATAAAAATTTTATT [XGTACX_site8500] | 8.34 ± 0.46
AAAAAAAAAAAATATACACACACATATATATATATA [CACACA_site9123] | 9.84 ± 0.3
AACAACAATTTCGTCATACACACATTCAGAATATAT [CACACA_site2371] | 9.1 ± 0.35
AATGATCATAAATACACACACACAAAAAAAAAAAAA [CACACA_site6072] | 9.7 ± 0.47
TATTAAAAAAATGTATGTACATATATAAATTTTTTT [XGTACX_site1094] | 8.4 ± 0.48

Sequence | gcPBM binding intensity (ln)
TTTCTCCCATTTTTTAGTACACAAAATATATATGTA [XGTACX_site7218] | 8.7 ± 0.41
GATGGATTTATTTAAAGTACATATTTAAAAAACTGT [XGTACX_site7567] | 8.51 ± 0.49
AAAGTAAAAGAAAGCACACACACATGTATATATGTA [CACACA_site3857] | 9.57 ± 0.34
TTTATACTATAATTATGTACTTATAAAAGGAATAAA [XGTACX_site8027] | 8.26 ± 0.42
ATGTAAATACATATATGTACACAAATATATATATAT [XGTACX_site3537] | 9.33 ± 0.33
ATAAACACATCTATATGTACATATATATATATATAC [XGTACX_site347] | 9.28 ± 0.26
TATATAAATATACATTGTACTCAACATTTTCATTAA [XGTACX_site3690] | 8.58 ± 0.37
TATATTAAATAAAAAGTGCATGTCTCATAAGATGGA [GTGCAC_site9520] | 8.64 ± 0.46
ATAGGGAATTTATGCACACAGTTAAGGGGGAAAATT [CACACA_site5183] | 9.34 ± 0.19
ATAAAATGTTAAGGGTGTACTTTACACATCTCCTAT [XGTACX_site4699] | 8.83 ± 0.41
TATAAATAAAGCAGTACACACATTTATTTTAGATAC [CACACA_site7566] | 8.93 ± 0.42
TATAAGATTATACAAAGTACATATAAATAATATATT [XGTACX_site1917] | 8.61 ± 0.47
ATATATATATAAATATGTACATATATATATTATATA [XGTACX_site120] | 8.77 ± 0.36
TCCTCTTTTATTTTTACACACGCGTAAACATATATA [CACACA_site667] | 9.26 ± 0.42
TTAAAAAAAGATTATACACACACATATATAAACATA [CACACA_site8136] | 9.28 ± 0.28
ATGGGTTAAAAATGCACACAAAAAAATATACAGATA [CACACA_site4321] | 9.17 ± 0.4
TGAAATAAAAAATATAGTACTCGTTCGTAACCAAAA [XGTACX_site413] | 8.73 ± 0.43
TGTATTAATAAAAATACACACATCATATTATAGAAA [CACACA_site7629] | 8.86 ± 0.33
ATATATAAGGATGTCACACATAAATATTAACACTAA [CACACA_site5101] | 8.8 ± 0.47
TTCAATTTTTTATGAACACACAAAAAAAAAAAAAAA [CACACA_site2533] | 8.4 ± 0.34
ACATAATTAACAAATACACACACACCCACCCACAAA [CACACA_site8069] | 10.3 ± 0.13
TTATATTATTTTTATACATGCATTTCTATATATTTT [TGCATGCA_site164] | 8.96 ± 0.4

Sequence | gcPBM binding intensity (ln)
ATTTGTGATTTGTGTGTGCACGTATTTACAGAACAA [GTGCAC_site9498] | 9.21 ± 0.37
AAGAAAAAATATATATATATATATATATATAATATG [TGCATGCA_negctrl_site417] | 9.25 ± 0.62
ATCCATCTTTTAATTTGTACTTATTCTTTTTTCTTT [XGTACX_site5299] | 9.05 ± 0.5
ATATATATATGTAATAGTACATATGATAGTTTGTCA [XGTACX_site1545] | 9.03 ± 0.49
ATTAGTTTTATATATAGTACATATAATTTTGAAGGT [XGTACX_site7445] | 8.74 ± 0.32
AATATATATATATTATCACACACTCACGTTTGACAA [CACACA_site8130] | 9.06 ± 0.37
TATGATATATATAATACACACATATACATAAGATCT [CACACA_site1119] | 9.06 ± 0.31
TAAAAAAAACGAACAAGTACACATAAAAAAAAATTA [XGTACX_site5982] | 8.87 ± 0.46
ATTATATCATATATATGTACACATATATAACATGAT [XGTACX_site7] | 8.86 ± 0.26
TTGTAATTTATTCAAACACACAATTTGGACCTTTTT [CACACA_site1063] | 8.79 ± 0.51
TATTCATAATTTTAATGTACAAAATGGTTTGTAATA [XGTACX_site8493] | 8.45 ± 0.48
AAAGATAAATTAAAAAGTACATATTTATTCAATGTA [XGTACX_site8543] | 8.52 ± 0.49
TATAATAATTAAAAGTGTACTAAATTTTTACATATA [XGTACX_site2523] | 8.37 ± 0.33
TTTTATTTATCTTAATGTACACATTTATATATATAT [XGTACX_site8588] | 8.97 ± 0.45
CACTTTTTTTTTTACTGTACATATACAAATTAAAAA [XGTACX_site1565] | 8.47 ± 0.28
TTATATATATTTAAAAAAATAACATAAATAAATAAA [CACACA_negctrl_site347] | 8.29 ± 0.52
GTAAATATAAACTCAGCACACAAACATATATATGTC [CACACA_site9326] | 9.22 ± 0.4
TTAAATAAAAGGTTTAGTACTTAAAATAAGAAATGA [XGTACX_site6341] | 8.46 ± 0.51
TTTTTTTTCAATGGTTGTACAAAGTAAAACAACAAA [XGTACX_site1582] | 8.35 ± 0.37
TGGGTGTAGAACAATTGTACTTTGTAAAAATATAAG [XGTACX_site8464] | 8.77 ± 0.57
ATTAAGTATATTTCTGCACACAAAAAAAAAAACCAA [CACACA_site9342] | 9.12 ± 0.47
GTATATATATATAAAAGTACATGTTATGAAAAAAAA [XGTACX_site5410] | 8.87 ± 0.47
